Biological target: MBP tagged 53BP1 fragment (a.a. 1484-1603)
Assay: BLI, fold change Ka of Ubv/Ka of CM489

Binder | binding result
L2V (CM495) (designed binder) Ubv: MHHHHHHGGSGYVIFVRMLTGKMIELEVEPSDTIENIKAKIQDHEGIPLDQQRLTFQGKLLEDGRTLSDYNLTISPEKMAVLRMQ | binds
L2Y (CM494) (designed binder) Ubv: MHHHHHHGGSGYYIFVRMLTGKMIELEVEPSDTIENIKAKIQDHEGIPLDQQRLTFQGKLLEDGRTLSDYNLTISPEKMAVLRMQ | binds
L2N (CM480) (designed binder) Ubv: MHHHHHHGGSGYNIFVRMLTGKMIELEVEPSDTIENIKAKIQDHEGIPLDQQRLTFQGKLLEDGRTLSDYNLTISPEKMAVLRMQ | binds
L2K (CM488) (designed binder) Ubv: MHHHHHHGGSGYKIFVRMLTGKMIELEVEPSDTIENIKAKIQDHEGIPLDQQRLTFQGKLLEDGRTLSDYNLTISPEKMAVLRMQ | binds
L2S (CM491) (designed binder) Ubv: MHHHHHHGGSGYSIFVRMLTGKMIELEVEPSDTIENIKAKIQDHEGIPLDQQRLTFQGKLLEDGRTLSDYNLTISPEKMAVLRMQ | binds
L2P (CM496) (designed binder) Ubv: MHHHHHHGGSGYPIFVRMLTGKMIELEVEPSDTIENIKAKIQDHEGIPLDQQRLTFQGKLLEDGRTLSDYNLTISPEKMAVLRMQ | binds
L2T (CM492) (designed binder) Ubv: MHHHHHHGGSGYTIFVRMLTGKMIELEVEPSDTIENIKAKIQDHEGIPLDQQRLTFQGKLLEDGRTLSDYNLTISPEKMAVLRMQ | binds
L2W (CM493) (designed binder) Ubv: MHHHHHHGGSGYWIFVRMLTGKMIELEVEPSDTIENIKAKIQDHEGIPLDQQRLTFQGKLLEDGRTLSDYNLTISPEKMAVLRMQ | binds
L2R (CM479) (designed binder) Ubv: MHHHHHHGGSGYRIFVRMLTGKMIELEVEPSDTIENIKAKIQDHEGIPLDQQRLTFQGKLLEDGRTLSDYNLTISPEKMAVLRMQ | binds

Biological target: MBP tagged 53BP1 fragment (a.a. 1484-1603)
Assay: BLI, fold change Ka of Ubv/Ka of CM1

Binder | binding result
CM120 (designed binder) Ubv: MHHHHHHGGSGMLIFVRMLTGKMIELEVMPSDTIEVVKAKIFDHEGIPLDQQHLAFQGTSLEDGYTLGDYNILKDPKKMPLLRLR | binds
CM114 (designed binder) Ubv: MHHHHHHGGSGMLIFVRMLTGKMIELEVMPSDTIENVKAKIQDHEGIPPDQQRLAFQGTSLDDGRTLGDYNILKDPKKMPLLRLR | binds
CM118 (designed binder) Ubv: MHHHHHHGGSGMLIFVRMLTGKMIELEVMPSDTIEVVKAKIFDHEGIPPDQQHLAFQGTSLEDGYTLGDYNILKDPKKMPLLRLR | binds
CM119 (designed binder) Ubv: MHHHHHHGGSGMLIFVRMLTGKMIELEVMPSDTIEVVKAKIFDHEGIPPDQQHLTFQGTLLEDGYTLGDYNILKDPKKMPLLRLR | binds
CM121 (designed binder) Ubv: MHHHHHHGGSGMLIFVRMLTGKMIELEVMPSDTIEVVKAKIQDHEGIPPDQQHLAFQGTSLEDGYTLGDYNILKDPKKMPLLRLR | binds
CM110 (designed binder) Ubv: MHHHHHHGGSGHLIFVRMLTGKMIELEVEPSDTIENVKAKIQDHEGIPPDQQRLAFQGKSLEDGRTLSDYNILKDPKKMPLLRLQ | binds
CM112 (designed binder) Ubv: MHHHHHHGGSGMLIFVRMLTGKMIELEVEPSDTIEVVKAKIQDHEGIPPDEQRLAFQGKSLDDGRTLSDYNILKDPKKMPLLRLR | binds
CM111 (designed binder) Ubv: MHHHHHHGGSGYLIFVRMLTGKMIELEVEPSDTIENIKAKIQDHEGIPPDQQRLAFQGKSLEDGRTLSDYNILKDPKKMPLLRMR | binds
CM116 (designed binder) Ubv: MHHHHHHGGSGMLIFVRMLTGKMIELEVEPSDTIENIKAKIQDHEGIPPDQYRLAFQGKLLEDGRTLGDYNILKDPKKMPLLRLR | binds
CM115 (designed binder) Ubv: MHHHHHHGGSGMLIFVRMLTGKMIELMVEPSDTIEVVKAKIQDHEGIPPDEQRLAFQGKLLEDGRTLSDYNILKDPKKMPLLRLR | binds
CM117 (designed binder) Ubv: MHHHHHHGGSGMLIFVRMLTGKMIELEVEPSDTIENVKAKICDHEGIPPDQQHLAFQGKSLEDGRTLGDYNILKDPKKMPLLRLR | binds
CM108 (designed binder) Ubv: MHHHHHHGGSGMLIFVRMLTGKMIELEVYPSDTIENVKAKIQDHEGIPLDQQRLAFQGKLLEDGRTLGDYNILKDPKKMPLLRLR | binds

Biological target: MBP tagged 53BP1 fragment (a.a. 1484-1603)
Assay: BLI, fold change Ka of Ubv/Ka of CM1
Remark: another data set of the same source

Binder | binding result
- K33H (CM48) (designed binder) Ubv: MHHHHHHGGSGMLIFVRMLTGKMIELEVEPSDTIENVKAKIQDKEGIPPDQQRLAFQGKSLEDGRTLSDYNILKDPKKMPLLRLR | binds
- T12M (CM46) (designed binder) Ubv: MHHHHHHGGSGMLIFVRMLTGKTIELEVEPSDTIENVKAKIQDHEGIPPDQQRLAFQGKSLEDGRTLSDYNILKDPKKMPLLRLR | binds
- T7M (CM45) (designed binder) Ubv: MHHHHHHGGSGMLIFVRTLTGKMIELEVEPSDTIENVKAKIQDHEGIPPDQQRLAFQGKSLEDGRTLSDYNILKDPKKMPLLRLR | binds
- H68M (CM52) (designed binder) Ubv: MHHHHHHGGSGMLIFVRMLTGKMIELEVEPSDTIENVKAKIQDHEGIPPDQQRLAFQGKSLEDGRTLSDYNILKDPKKHPLLRLR | binds
- A46Q (CM49) (designed binder) Ubv: MHHHHHHGGSGMLIFVRMLTGKMIELEVEPSDTIENVKAKIQDHEGIPPDQQRLAFAGKSLEDGRTLSDYNILKDPKKMPLLRLR | binds
- S65P (CM50) (designed binder) Ubv: MHHHHHHGGSGMLIFVRMLTGKMIELEVEPSDTIENVKAKIQDHEGIPPDQQRLAFQGKSLEDGRTLSDYNILKDSKKMPLLRLR | binds
- L67K (CM51) (designed binder) Ubv: MHHHHHHGGSGMLIFVRMLTGKMIELEVEPSDTIENVKAKIQDHEGIPPDQQRLAFQGKSLEDGRTLSDYNILKDPKLMPLLRLR | binds
- K6R (CM44) (designed binder) Ubv: MHHHHHHGGSGMLIFVKMLTGKMIELEVEPSDTIENVKAKIQDHEGIPPDQQRLAFQGKSLEDGRTLSDYNILKDPKKMPLLRLR | binds
